From the supplement of paper PMC7826260
This is one part of the list. The data describe in vitro nicking of single-stranded DNA by Rep domains (1 h at 37 °C, 3 µM enzyme); the outer parts of the 90-letter strands are left off. Numbers give uncut DNA relative to the enzyme-free pool, as log2; the lower, the more was cut; hits are not called. Because reads are shares of a total, they shift together; values above 0 arise when much of the pool is cut.

Experiments:
Assay in all cases: uncleaved DNA left, log2 of reads against the no-enzyme library (log2 ratio); higher = less cleavage (more negative = more Rep cleavage of the k-mer); sequences stand for … in CTCGTCCG…ACCGGAGA
[1] = test system: T1, Rep nickase domain of Muscovy duck circovirus
T1 sequence (residues 1-111 of Rep, tag left off): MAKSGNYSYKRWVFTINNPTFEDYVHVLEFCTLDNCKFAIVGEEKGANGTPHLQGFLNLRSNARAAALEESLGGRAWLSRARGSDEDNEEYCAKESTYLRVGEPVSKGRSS
Description: (§1)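 A pool of 90-nt single-stranded DNAs with seven random bases just before the constant AC of the nick site (name = the seven bases) was cut by 3 µM recombinant His6-SUMO-tagged Rep nickase domain (300 nM DNA, 50 mM HEPES pH 8.0, 50 mM NaCl, 1 mM MnCl2, 1 h, 37 °C, three replicates). Uncut DNA was amplified and sequenced.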

[2] = test system: T2, Rep nickase domain of banana bunchy top virus
T2 sequence (residues 1-94 of Rep, tag left off): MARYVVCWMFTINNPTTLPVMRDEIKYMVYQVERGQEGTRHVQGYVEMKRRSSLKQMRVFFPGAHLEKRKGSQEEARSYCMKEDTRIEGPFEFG
Description: as §1

[3] = test system: T3, Rep nickase domain of cabbage leaf curl virus
T3 sequence (residues 1-116 of Rep, tag left off): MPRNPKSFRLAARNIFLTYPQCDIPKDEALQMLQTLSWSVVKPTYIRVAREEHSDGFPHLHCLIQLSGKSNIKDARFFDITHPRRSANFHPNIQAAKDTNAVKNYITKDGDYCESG
Description: as §1

[4] = test system: T4, Rep nickase domain of chickpea chlorotic dwarf virus
T4 sequence (residues 1-124 of Rep, tag left off): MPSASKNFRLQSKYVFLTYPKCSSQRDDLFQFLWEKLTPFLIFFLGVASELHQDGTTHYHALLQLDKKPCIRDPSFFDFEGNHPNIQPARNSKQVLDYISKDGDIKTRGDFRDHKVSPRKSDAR
Description: as §1

[5] = test system: T5, Rep nickase domain of faba bean necrotic yellows virus
T5 sequence (residues 1-98 of Rep, tag left off): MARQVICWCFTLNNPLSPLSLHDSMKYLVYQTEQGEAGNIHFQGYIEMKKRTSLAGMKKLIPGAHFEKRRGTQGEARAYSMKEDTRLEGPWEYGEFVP
Description: as §1

[6] = test system: T6, Rep nickase domain of maize striate mosaic virus
T6 sequence (residues 1-117 of Rep, tag left off): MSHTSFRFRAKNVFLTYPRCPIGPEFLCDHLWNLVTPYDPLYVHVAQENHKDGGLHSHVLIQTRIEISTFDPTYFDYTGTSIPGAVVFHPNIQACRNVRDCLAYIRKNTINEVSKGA
Description: as §1

[7] = test system: T7, Rep nickase domain of porcine circovirus 2
T7 sequence (residues 2-116 of Rep, tag left off): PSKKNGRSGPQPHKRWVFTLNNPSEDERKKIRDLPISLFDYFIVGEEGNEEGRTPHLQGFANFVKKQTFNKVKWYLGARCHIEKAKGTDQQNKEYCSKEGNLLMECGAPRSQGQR
Description: as §1

[8] = test system: T8, Rep nickase domain of tomato golden mosaic virus
T8 sequence (residues 1-124 of Rep, tag left off): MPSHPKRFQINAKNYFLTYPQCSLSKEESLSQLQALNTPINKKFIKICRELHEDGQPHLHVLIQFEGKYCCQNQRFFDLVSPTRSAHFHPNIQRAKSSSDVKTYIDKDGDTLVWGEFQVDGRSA
Description: as §1

[9] = test system: T9, Rep nickase domain of tomato yellow leaf curl virus
T9 sequence (residues 1-136 of Rep, tag left off): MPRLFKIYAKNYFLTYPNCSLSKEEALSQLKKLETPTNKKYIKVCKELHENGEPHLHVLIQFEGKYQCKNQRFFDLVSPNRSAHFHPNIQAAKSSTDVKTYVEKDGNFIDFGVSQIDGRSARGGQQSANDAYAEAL
Description: as §1

[10] = test system: T10, Rep nickase domain of wheat dwarf virus
T10 sequence (residues 1-137 of Rep, tag left off): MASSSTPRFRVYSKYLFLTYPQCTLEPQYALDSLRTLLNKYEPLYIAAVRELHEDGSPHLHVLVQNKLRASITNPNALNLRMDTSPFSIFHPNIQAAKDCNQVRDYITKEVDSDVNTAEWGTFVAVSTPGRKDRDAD
Description: as §1

Sequence | uncleaved DNA left (log2) [1] | uncleaved DNA left (log2) [2] | uncleaved DNA left (log2) [3] | uncleaved DNA left (log2) [4] | uncleaved DNA left (log2) [5] | uncleaved DNA left (log2) [6] | uncleaved DNA left (log2) [7] | uncleaved DNA left (log2) [8] | uncleaved DNA left (log2) [9] | uncleaved DNA left (log2) [10]
GAGATTG | -0.0215 | 0.0557 | -0.0183 | 1.25 | 0.0115 | 1.05 | -0.0143 | -0.00264 | 0.0235 | 0.0166
GTCTTCA | 0.0222 | -0.0186 | 0.268 | 0.844 | 0.0158 | 1.72 | 0.0332 | 0.109 | -0.0529 | -0.00313
TCCACGA | -0.0251 | -0.0675 | 0.0495 | -0.243 | -0.102 | -0.648 | -0.00775 | -0.0579 | -0.2 | -0.0277
TGCGCAC | 0.0406 | -0.031 | -0.145 | -0.0636 | -0.0709 | -0.383 | -0.0189 | -0.0084 | 0.0468 | 0.082
ACTTCAA | 0.0706 | 0.0387 | -0.197 | -0.252 | 0.145 | -0.749 | -0.018 | 0.103 | 0.0137 | 0.039
ACTAGTA | -0.0945 | -0.0178 | -0.134 | -1.07 | 0.0272 | -0.67 | 0.000988 | 0.0274 | -0.0359 | 0.0464
TTTTGTC | -0.0947 | -0.322 | -0.237 | -0.62 | -0.15 | -1.22 | -0.144 | -0.197 | -0.181 | -0.208
CTTATTG | -0.0387 | 0.0537 | -0.589 | -0.532 | -0.0178 | -1.23 | 0.132 | -0.0541 | 0.0513 | -0.0723
TGGTAAT | -0.568 | 0.0182 | 0.37 | 0.51 | -0.278 | 1.6 | -3.38 | -0.0848 | -0.00281 | -0.0224
CCGTTGA | 0.0275 | -0.0486 | -0.16 | -0.242 | 0.0925 | -0.588 | 0.0282 | 0.0354 | 0.123 | -0.00791
TACCCAG | -0.0376 | -0.0398 | -0.678 | -1.09 | 0.0706 | -1.23 | -1.15 | -0.121 | -0.034 | -0.204
AGTCGCC | 0.0717 | 0.0299 | 0.14 | 0.242 | 0.0537 | -0.256 | 0.0691 | 0.0136 | 0.0254 | 0.0213
ATCGCGC | -0.00727 | -0.021 | -0.676 | 0.137 | 0.0224 | -0.735 | 0.0851 | -0.058 | -0.0144 | -0.118
CTGTAAG | 0.0979 | 0.0564 | -0.659 | -0.195 | 0.171 | -1.15 | 0.31 | 0.045 | 0.165 | -0.00852
CCCCACG | -0.0335 | 0.238 | -0.78 | -0.254 | -0.00471 | -0.885 | 0.077 | 0.113 | 0.00378 | 0.0146
TAATGTA | -2.7 | -0.115 | -2.99 | -2.81 | -0.123 | -2.3 | -3.07 | -3.02 | -0.0267 | -3.01
GTCAACT | 0.0195 | 0.0565 | 0.229 | 0.118 | -0.0067 | 1.55 | -0.0319 | 0.0599 | 0.0279 | 0.0337
AGTGGCC | 0.00155 | 0.0988 | 0.132 | 0.637 | -0.0328 | 1.06 | 0.072 | 0.157 | 0.0766 | 0.0685
CTAACTG | 0.0125 | 0.143 | -0.196 | -0.155 | 0.0218 | 0.823 | 0.0146 | 0.00337 | 0.0294 | 0.0459
TATTTAT | -3.33 | -2.93 | -0.018 | -0.996 | 0.0265 | 1.05 | -3.73 | 0.074 | 0.00579 | 0.0137
CTCAAAA | 0.0258 | 0.0997 | 0.106 | -0.000845 | 0.127 | -0.622 | -0.0183 | 0.0125 | -0.00645 | 0.07
CGGGTGT | 0.0683 | -0.0343 | 0.204 | 0.637 | 0.00253 | 1.31 | 0.0725 | 0.0712 | 0.0263 | -0.112
ATCCATA | 0.0671 | 0.109 | -0.2 | -1.07 | 0.0422 | -0.928 | -0.147 | -0.0302 | 0.115 | 0.0289
ATCCATC | 0.0743 | 0.0175 | 0.0531 | 0.0999 | 0.106 | -0.728 | 0.226 | 0.0482 | 0.268 | 0.143
TACACTC | 0.0886 | 0.0187 | -0.347 | -1.59 | -0.009 | -0.709 | 0.0156 | 0.00934 | -0.0594 | -0.0479
GCCTAAT | -0.904 | -0.0316 | 0.198 | 0.207 | 0.0508 | 0.521 | -2.75 | 0.032 | -0.0112 | 0.021
ATCTTAA | 0.0623 | 0.0948 | -0.0538 | -0.252 | 0.146 | -0.576 | -0.0928 | 0.0596 | 0.0677 | -0.00554
CCGTAAG | -0.0558 | -0.0617 | -0.851 | -0.19 | -0.116 | -0.952 | 0.157 | 0.0383 | -0.0553 | -0.272
ATGCTCA | -0.0614 | 0.0523 | -0.0771 | -1.09 | -0.0185 | -0.767 | 0.0229 | 0.0723 | 0.00437 | 0.00275
CTAGGGT | -0.079 | 0.00647 | 0.183 | 1.29 | -0.154 | 1.69 | -0.0112 | 0.0611 | -0.115 | -0.0877
